The whole screen tested about 350,000 compounds, of which about 9,900 (2.8%) were called active. Inconclusive results, whose numbers are uncertain, are shown with a selection of clear calls. Calls come from the whole dose curve; as a rule, active = well fitted activation curve with a large enough effect; inconclusive = small, poorly fitted or top-dose-only effect; inactive = no such curve, though single readings can be large or run the other way. No potency is given beside an inconclusive call; the fits are too rough.
Assay: A quantitative high throughput screen for small molecules that induce DNA re-replication in MCF 10a normal breast cells. For activity, positive = re-replication: % of control where 0% means no effect. Note: nearly all actives have a fitted effect of over 50% in size.
Conditions: MCF 10A DNA re-replication, Hoechst nuclear intensity, 48 h; activity, positive = re-replication: at 46.1 µM (top of the series)
With `N#Cc1ccccc1S(=O)(=O)N1CCN(Cc2c(O)ccc3ccccc23)CC1` the “activity, positive = re-replication” value was inactive: 0.162%. For `CC(=O)N/C(=C\c1ccc(C)o1)C(=O)NCc1ccccc1`, the Potency was inconclusive [activator, single point]. For `CCN(C(=O)COC(=O)c1ccccc1OCc1ccc(Cl)cc1)C1CCS(=O)(=O)C1` (stereo not given), the “activity, positive = re-replication” value was inactive: -0.494%. In the case of `CN(C)CCCN(C(=O)c1ccc(S(=O)(=O)N2CCc3ccccc32)cc1)c1nc2ccc(F)cc2s1`, the “activity, positive = re-replication” value is reported as inactive: 5.96%. With `O=C1NC(Cc2c[nH]c3ccccc23)C(=O)N1Cc1ccccc1` (stereo not given) the “activity, positive = re-replication” value was inactive: -12.9%. For `CCOC(=O)C1(CC2CCCCO2)CCN(C(=O)Nc2ccc(C)c(C)c2)CC1` (stereo not given), the Potency was inconclusive [activator, single point]. With `O=C(C[C@H]1C/C=C\CC[C@@H](Cc2ccc(F)cc2)C(=O)OC[C@H]2CCCN2C1=O)NCCO` the “activity, positive = re-replication” value was inactive: -8.55%. With `S=C1NC[C@H](c2ccccc2)N1CCCCC1CCCCC1` the Potency was inconclusive [activator, single point]. For `COc1ccccc1/C=N/NC(=O)c1[nH]c(C)c(C(=O)N/N=C/c2ccccc2OC)c1C`, the “activity, positive = re-replication” value was inactive: -2.46%. For `Brc1ccc(/C=N/Nc2ccccc2)cc1`, the Potency was inconclusive [activator, single point]. In the case of `O=C(COc1ccc(Br)cc1Cl)NC(=S)N1CCc2ccccc21`, the Potency is reported as inconclusive [activator, single point]. In the case of `CCn1c(C)c(C(C)=O)c(N2CCN(C(c3ccccc3)c3ccccc3)CC2)nc1=S`, the Potency is reported as inconclusive [activator, single point]. For `CCOCCn1c(N2CCCN(C)CC2)nc2ccccc21`, the “activity, positive = re-replication” value was inactive: 4.46%. With `COCCCNc1nc2c(-c3cccc(C(F)(F)F)c3)nnn2c2ccccc12` the Potency was inconclusive [activator, partial curve, poor fit]. In the case of `CCCc1cc(=O)[nH]c(SCc2cc(=O)oc3cc(C)c(C(C)C)cc23)n1`, the Potency is reported as inconclusive [activator, single point]. For `CCCCCCCCNC(=O)CC(NS(=O)(=O)c1ccc(NC(C)=O)cc1)C(C)C` (stereo not given), the Potency was inconclusive [activator, partial curve]. For `Cc1ccc(C)c(NC(=O)CN(C)C(=O)CN2C(=O)NC3(CCc4ccccc43)C2=O)c1` (stereo not given), the “activity, positive = re-replication” value was inactive: -11.4%. In the case of `CC(=O)Nc1ccc(S(=O)(=O)N2CN(c3ccc(C)cc3)c3nc4ccccc4nc32)cc1`, the Potency is reported as inconclusive [activator, full curve, poor fit]. With `Cc1cccc(-n2c(C)cc(/C=C3\NC(=O)NC3=O)c2C)c1` the Potency was active: 16.4 µM. With `COc1ccc(-c2nc(NC(=O)c3n[nH]c(=O)c4ccccc34)sc2C)cc1` the Potency was inconclusive [activator, full curve].

From PubChem BioAssay AID624296 (National Center for Advancing Translational Sciences (NCATS), 2012)
Potency is the fitted concentration of half-maximal effect; tags give direction and shape of the fitted curve.
